Source: the supplement of paper PMC4604168 (melanoma cell lines)
This is one part of the list. Most values come without repeats; read them as rough.

How the values were obtained:
Assay in all cases: cell count relative to DMSO control; melanoma cells; higher = more viable cells
Settings in all cases: library dose: low library concentration; 72 h
WM115 = test system: WM115
WM1716 = test system: WM1716
WM1745 = test system: WM1745
WM3526 = test system: WM3526
WM3619 = test system: WM3619
WM451Lu = test system: WM451Lu
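Also: cell number obtained by counting DAPI-stained nuclei in high-throughput microscope images with image analysis software, screen run in 1,536-well plates.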

## O=c1[nH]nc(Sc2ncc([N+](=O)[O-])s2)n1-c1ccc2c(c1)OCCO2 + C=CCNC1=C2C[C@@H](C)C[C@H](OC)[C@H](O)[C@@H](C)/C=C(\C)[C@H](OC(N)=O)[C@@H](OC)/C=C\C=C(/C)C(=O)NC(=CC1=O)C2=O [Tanespimycin] (first compound 0.2 µM, partner dose 0.002 µM)
WM115
  cell count: 88%
WM1716
  cell count: 88.9%
WM1745
  cell count: 111%
WM3526
  cell count: 93.4%
WM3619
  cell count: 93.5%
WM451Lu
  cell count: 89.7%

## COc1cc(Nc2ncc(F)c(Nc3ccc4c(n3)NC(=O)C(C)(C)O4)n2)cc(OC)c1OC [Tamatinib] + Cc1cc([N+](=O)[O-])ccc1NS(=O)(=O)c1cc(Cl)ccc1Cl [FH535] (first compound 0.4 µM, partner dose 1 µM)
WM115
  cell count: 77.4%
WM1716
  cell count: 90.3%
WM1745
  cell count: 68.8%
WM3526
  cell count: 89.4%
WM3619
  cell count: 108%
WM451Lu
  cell count: 86.8%

## O=C(Nc1cccc(Cl)c1)Nc1ncc(CCNc2ncnc3ccsc23)s1 + O=S(=O)(c1ccccc1)N(CC(F)(F)F)c1ccc(C(O)(C(F)(F)F)C(F)(F)F)cc1 [T0901317] (first compound 0.0008 µM, partner dose 1.4 µM)
WM115
  cell count: 86.5%
WM1716
  cell count: 73.6%
WM1745
  cell count: 87.2%
WM3526
  cell count: 88.5%
WM3619
  cell count: 96.9%
WM451Lu
  cell count: 85.6%

## O=c1[nH]nc(Sc2ncc([N+](=O)[O-])s2)n1-c1ccc2c(c1)OCCO2 + CCc1ccc(CCOc2ccc(CC3SC(=O)NC3=O)cc2)nc1 [pioglitazone] (first compound 0.2 µM, partner dose 2 µM)
WM115
  cell count: 99.3%
WM1716
  cell count: 92.5%
WM1745
  cell count: 83.8%
WM3526
  cell count: 91.6%
WM3619
  cell count: 106%
WM451Lu
  cell count: 102%

## CC1(C)NC(=O)N(c2ccc([N+](=O)[O-])c(C(F)(F)F)c2)C1=O [nilutamide] + O=C(Nc1ccccc1)c1cc([N+](=O)[O-])ccc1Cl [GW9662] (first compound 1 µM, partner dose 2 µM)
WM115
  cell count: 102%
WM1716
  cell count: 94.9%
WM1745
  cell count: 81.3%
WM3526
  cell count: 118%
WM3619
  cell count: 94%
WM451Lu
  cell count: 112%

## C[C@@H]1CCN(C(=O)CC#N)C[C@@H]1N(C)c1ncnc2[nH]ccc12 + O=C(Nc1cccc(Cl)c1)Nc1ncc(CCNc2ncnc3ccsc23)s1 [SNS314] (first compound 1 µM, partner dose 0.0008 µM)
WM115
  cell count: 85.5%
WM1716
  cell count: 90.6%
WM1745
  cell count: 83.8%
WM3526
  cell count: 93.8%
WM3619
  cell count: 106%
WM451Lu
  cell count: 91.4%

## CC1(C)NC(=O)N(c2ccc([N+](=O)[O-])c(C(F)(F)F)c2)C1=O [nilutamide] + Cn1cc(/C=C2\C(=O)Nc3cccnc32)c2ccccc21 [GW441756] (first compound 1 µM, partner dose 0.4 µM)
WM115
  cell count: 101%
WM1716
  cell count: 117%
WM1745
  cell count: 95.5%
WM3526
  cell count: 93.1%
WM3619
  cell count: 104%
WM451Lu
  cell count: 111%

## COc1cc(Nc2ncc(F)c(Nc3ccc4c(n3)NC(=O)C(C)(C)O4)n2)cc(OC)c1OC [Tamatinib] + c1cc(-c2cnn3cc(-c4ccc(OCCN5CCCCC5)cc4)cnc23)ccn1 [Dorsomorphin] (first compound 0.4 µM, partner dose 0.4 µM)
WM115
  cell count: 88.7%
WM1716
  cell count: 85.3%
WM1745
  cell count: 50.1%
WM3526
  cell count: 92.2%
WM3619
  cell count: 97.9%
WM451Lu
  cell count: 98.7%

## O=C(O)c1ccc(-c2c[nH]c3ncc(-c4ccccc4)cc23)cc1C1CCCC1 + O=C(O)C(=O)Nc1sc2c(c1C(=O)O)CCNC2 [TCS401] (first compound 0.16 µM, partner dose 1.66667 µM)
WM115
  cell count: 98.2%
WM1716
  cell count: 84.4%
WM1745
  cell count: 93.6%
WM3526
  cell count: 94.9%
WM3619
  cell count: 91.5%
WM451Lu
  cell count: 147%

## COc1cc(Nc2ncc(F)c(Nc3ccc4c(n3)NC(=O)C(C)(C)O4)n2)cc(OC)c1OC [Tamatinib] + O=c1cc(-c2cccc3c2Sc2ccccc2S3)oc(N2CCOCC2)c1 [KU55933] (first compound 0.4 µM, partner dose 1 µM)
WM115
  cell count: 93.1%
WM1716
  cell count: 98.8%
WM1745
  cell count: 78%
WM3526
  cell count: 78.4%
WM3619
  cell count: 83.7%
WM451Lu
  cell count: 91.1%

## O=C(Nc1cccc(Cl)c1)Nc1ncc(CCNc2ncnc3ccsc23)s1 + O=c1cc(-c2cccc3c2Sc2ccccc2S3)oc(N2CCOCC2)c1 [KU55933] (first compound 0.0008 µM, partner dose 1 µM)
WM115
  cell count: 85.2%
WM1716
  cell count: 102%
WM1745
  cell count: 85.8%
WM3526
  cell count: 88.2%
WM3619
  cell count: 108%
WM451Lu
  cell count: 93.7%

## Cn1cncc1[C@@](N)(c1ccc(Cl)cc1)c1ccc2c(c1)c(-c1cccc(Cl)c1)cc(=O)n2C [tipifarnib] + CN(C)S(=O)(=O)c1ccc2c(c1)/C(=C/c1cc3c([nH]1)CCCC3)C(=O)N2 [SU6656] (first compound 0.01 µM, partner dose 0.4 µM)
WM115
  cell count: 53%
WM1716
  cell count: 87.2%
WM1745
  cell count: 99.9%
WM3526
  cell count: 89.3%
WM3619
  cell count: 78.6%
WM451Lu
  cell count: 86%

## O=c1[nH]nc(Sc2ncc([N+](=O)[O-])s2)n1-c1ccc2c(c1)OCCO2 + Cc1nc(Nc2ncc(C(=O)Nc3c(C)cccc3Cl)s2)cc(N2CCN(CCO)CC2)n1 [dasatanib] (first compound 0.2 µM, partner dose 0.004 µM)
WM115
  cell count: 82.6%
WM1716
  cell count: 75.7%
WM1745
  cell count: 77.2%
WM3526
  cell count: 102%
WM3619
  cell count: 92.9%
WM451Lu
  cell count: 99%

## COc1cc(Nc2ncc(F)c(Nc3ccc4c(n3)NC(=O)C(C)(C)O4)n2)cc(OC)c1OC [Tamatinib] + COc1cc(N2CCC(N3CCN(C)CC3)CC2)ccc1Nc1ncc(Cl)c(Nc2ccccc2S(=O)(=O)C(C)C)n1 [NVP-TAE684] (first compound 0.4 µM, partner dose 0.08 µM)
WM115
  cell count: 85%
WM1716
  cell count: 86.1%
WM1745
  cell count: 57%
WM3526
  cell count: 72%
WM3619
  cell count: 71.6%
WM451Lu
  cell count: 108%

## O=c1[nH]nc(Sc2ncc([N+](=O)[O-])s2)n1-c1ccc2c(c1)OCCO2 + CN(C)S(=O)(=O)c1ccc2c(c1)/C(=C/c1cc3c([nH]1)CCCC3)C(=O)N2 [SU6656] (first compound 0.2 µM, partner dose 0.4 µM)
WM115
  cell count: 78.1%
WM1716
  cell count: 113%
WM1745
  cell count: 92.7%
WM3526
  cell count: 86.6%
WM3619
  cell count: 92%
WM451Lu
  cell count: 86.3%

## O=C(Nc1cccc(Cl)c1)Nc1ncc(CCNc2ncnc3ccsc23)s1 + CC(C)CCN1c2nc(Nc3cc(F)c(O)c(F)c3)ncc2N(C)C(=O)C1C [BID1870] (first compound 0.0008 µM, partner dose 0.2 µM)
WM115
  cell count: 68.5%
WM1716
  cell count: 107%
WM1745
  cell count: 108%
WM3526
  cell count: 92.5%
WM3619
  cell count: 95.2%
WM451Lu
  cell count: 97.7%

## O=c1[nH]nc(Sc2ncc([N+](=O)[O-])s2)n1-c1ccc2c(c1)OCCO2 + Cc1cc(Nc2cc(N3CCN(C)CC3)nc(/C=C/c3ccccc3)n2)n[nH]1 [ENMD2076] (first compound 0.2 µM, partner dose 0.04 µM)
WM115
  cell count: 93.3%
WM1716
  cell count: 106%
WM1745
  cell count: 98.7%
WM3526
  cell count: 119%
WM3619
  cell count: 129%
WM451Lu
  cell count: 105%

## O=c1[nH]nc(Sc2ncc([N+](=O)[O-])s2)n1-c1ccc2c(c1)OCCO2 + O=C(O)c1ccc2c(c1)nc(Nc1cccc(Cl)c1)c1ccncc12 [CX4945] (first compound 0.2 µM, partner dose 0.4 µM)
WM115
  cell count: 111%
WM1716
  cell count: 89.8%
WM1745
  cell count: 94.7%
WM3526
  cell count: 112%
WM3619
  cell count: 96.3%
WM451Lu
  cell count: 102%

## O=C(O)c1ccc(-c2c[nH]c3ncc(-c4ccccc4)cc23)cc1C1CCCC1 + COc1cc2c(Oc3ccc4[nH]c(C)cc4c3F)ncnc2cc1OCCCN1CCCC1 [cediranib] (first compound 0.16 µM, partner dose 0.4 µM)
WM115
  cell count: 91.4%
WM1716
  cell count: 88.2%
WM1745
  cell count: 106%
WM3526
  cell count: 103%
WM3619
  cell count: 95.7%
WM451Lu
  cell count: 87.1%

## COc1cc(Nc2ncc(F)c(Nc3ccc4c(n3)NC(=O)C(C)(C)O4)n2)cc(OC)c1OC [Tamatinib] + COc1cc2ncnc(Nc3ccc(Oc4ccccc4)cc3)c2cc1OC [SrcI1] (first compound 0.4 µM, partner dose 2 µM)
WM115
  cell count: 86.5%
WM1716
  cell count: 88.9%
WM1745
  cell count: 60.3%
WM3526
  cell count: 83.6%
WM3619
  cell count: 97.5%
WM451Lu
  cell count: 100%

## COc1cc(Nc2ncc(F)c(Nc3ccc4c(n3)NC(=O)C(C)(C)O4)n2)cc(OC)c1OC [Tamatinib] + Cn1cc(/C=C2\C(=O)Nc3cccnc32)c2ccccc21 [GW441756] (first compound 0.4 µM, partner dose 0.4 µM)
WM115
  cell count: 89.8%
WM1716
  cell count: 99%
WM1745
  cell count: 65.7%
WM3526
  cell count: 67.5%
WM3619
  cell count: 92.9%
WM451Lu
  cell count: 92.9%

## O=C(O)c1ccc(-c2c[nH]c3ncc(-c4ccccc4)cc23)cc1C1CCCC1 + O=c1cc(-c2cccc3c2Sc2ccccc2S3)oc(N2CCOCC2)c1 [KU55933] (first compound 0.16 µM, partner dose 1 µM)
WM115
  cell count: 106%
WM1716
  cell count: 104%
WM1745
  cell count: 96.3%
WM3526
  cell count: 91.8%
WM3619
  cell count: 149%
WM451Lu
  cell count: 120%

## C[C@@H]1CCN(C(=O)CC#N)C[C@@H]1N(C)c1ncnc2[nH]ccc12 + O=c1cc(-c2cccc3c2Sc2ccccc2S3)oc(N2CCOCC2)c1 [KU55933] (first compound 1 µM, partner dose 1 µM)
WM115
  cell count: 93.5%
WM1716
  cell count: 95%
WM1745
  cell count: 105%
WM3526
  cell count: 77.4%
WM3619
  cell count: 90.6%
WM451Lu
  cell count: 88.7%

## O=c1[nH]nc(Sc2ncc([N+](=O)[O-])s2)n1-c1ccc2c(c1)OCCO2 + C=C(c1ccc(C(=O)O)cc1)c1cc2c(cc1C)C(C)(C)CCC2(C)C [Bexarotene] (first compound 0.2 µM, partner dose 2 µM)
WM115
  cell count: 88.5%
WM1716
  cell count: 89%
WM1745
  cell count: 105%
WM3526
  cell count: 77.2%
WM3619
  cell count: 159%
WM451Lu
  cell count: 92.2%

## O=c1[nH]nc(Sc2ncc([N+](=O)[O-])s2)n1-c1ccc2c(c1)OCCO2 + CCN(CC)CCNC(=O)c1c(C)[nH]c(/C=C2\C(=O)Nc3ccc(F)cc32)c1C [sunitinib] (first compound 0.2 µM, partner dose 0.4 µM)
WM115
  cell count: 95.4%
WM1716
  cell count: 120%
WM1745
  cell count: 96.1%
WM3526
  cell count: 129%
WM3619
  cell count: 99.5%
WM451Lu
  cell count: 86%
